# Source: paper PMC4336329 (PLoS ONE, 2015)
# Out of some 310,000 compounds screened, about 14,000 (4.5%) showed an effect of 50% or more. The effect is printed as a negative number. The list shows a part of the results.
# Target: human ether-à-go-go-related gene (hERG) potassium channel (human, UniProt Q12809)
# Test: primary screen, population patch clamp on CHO cells stably expressing hERG
# 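Further: peak tail current of the secondary pulse compared with the same well before compound.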
# human ether-à-go-go-related gene (hERG) potassium channel, sequence (Q12809 whole entry, looked up): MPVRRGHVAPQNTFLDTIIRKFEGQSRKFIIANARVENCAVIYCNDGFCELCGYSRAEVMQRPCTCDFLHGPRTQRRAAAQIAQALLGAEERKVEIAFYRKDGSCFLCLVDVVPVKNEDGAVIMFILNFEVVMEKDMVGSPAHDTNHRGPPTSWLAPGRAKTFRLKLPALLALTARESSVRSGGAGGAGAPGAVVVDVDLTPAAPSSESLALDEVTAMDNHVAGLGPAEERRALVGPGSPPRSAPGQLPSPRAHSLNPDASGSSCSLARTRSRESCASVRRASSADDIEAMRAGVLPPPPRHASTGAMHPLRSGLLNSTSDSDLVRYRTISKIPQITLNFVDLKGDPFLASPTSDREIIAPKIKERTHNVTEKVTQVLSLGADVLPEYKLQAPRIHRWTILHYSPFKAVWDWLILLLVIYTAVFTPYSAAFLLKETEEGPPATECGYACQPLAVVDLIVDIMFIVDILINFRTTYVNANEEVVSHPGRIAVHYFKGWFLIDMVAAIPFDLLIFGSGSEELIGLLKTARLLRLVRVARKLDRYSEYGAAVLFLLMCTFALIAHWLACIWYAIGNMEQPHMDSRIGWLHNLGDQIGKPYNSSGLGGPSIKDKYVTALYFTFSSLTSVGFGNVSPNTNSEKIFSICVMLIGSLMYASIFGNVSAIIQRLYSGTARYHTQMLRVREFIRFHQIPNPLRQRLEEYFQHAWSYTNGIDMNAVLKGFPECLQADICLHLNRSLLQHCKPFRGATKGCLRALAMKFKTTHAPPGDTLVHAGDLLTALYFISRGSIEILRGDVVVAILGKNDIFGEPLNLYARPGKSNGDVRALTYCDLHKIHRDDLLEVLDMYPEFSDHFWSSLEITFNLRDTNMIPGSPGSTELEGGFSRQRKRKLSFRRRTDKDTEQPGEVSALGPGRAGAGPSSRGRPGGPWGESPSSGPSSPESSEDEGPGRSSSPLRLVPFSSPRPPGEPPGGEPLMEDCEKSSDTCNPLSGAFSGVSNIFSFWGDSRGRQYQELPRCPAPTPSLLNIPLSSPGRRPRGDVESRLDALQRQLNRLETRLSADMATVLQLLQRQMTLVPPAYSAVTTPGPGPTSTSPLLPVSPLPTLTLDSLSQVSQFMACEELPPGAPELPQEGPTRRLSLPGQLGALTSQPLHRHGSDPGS
row,SMILES,"hERG current change (%, negative = inhibition) at 10uM"
1,CC(=O)N1N=C(c2ccc(Br)cc2)OC12CCCC2,9.81%
2,O=C(CCC(=O)N1C[C@H]2C[C@@H](C1)c1cccc(=O)n1C2)NCc1ccccc1C(F)(F)F,5.54%
3,CCn1cnc2scc(-c3ccccc3)c2c1=O,-11.5%
4,Cc1onc(-c2c(Cl)cccc2Cl)c1NC(=O)NN(C)c1ccc([N+](=O)[O-])cn1,11.8%
5,COc1ccc(CCNC(=O)c2cc(-c3cc(C)ccc3O)n[nH]2)cc1OC,12.2%
6,CCN(CC)C(=O)C1CCCN(Cc2ccc(OC)c(C)c2)C1 (stereo not shown),-10.7%
7,O=c1c(C(c2ccc(F)cc2)c2c(O)nc3n(c2=O)CCS3)c(O)nc2n1CCS2,13.5%
8,NC(=O)Cn1nc(-c2ccccc2)nc1-c1ccccc1,6.3%
9,Cc1ccc(CNC(=O)C(C)C2Sc3ccccc3NC2=O)cc1 (stereo not shown),-6.3%
10,COc1ccc(C(=O)N/N=C(\C)CC(=O)Nc2ccc3c(c2)OCO3)cc1,-37.1%
11,COc1cc2c(cc1OC)C1=CC(=O)C(=O)N1C(C)(C)C2,10.6%
12,Cc1cc(OCC(=O)NCc2cccnc2)c2c(C)cc(=O)oc2c1,-27.9%
13,Cc1ccccc1CO/N=C/c1[nH]ncc1Br,-5.13%
14,CC(c1ccccc1)C1CC(=O)N(Cc2ccccc2)C1=O (stereo not shown),-10.8%
15,CCOC(=O)c1c(C=O)c(C)n(Cc2ccc(C)cc2)c1C,-21.5%
16,O=C(CC12CC3CC(CC(C3)C1)C2)NC(=S)Nc1ccc(CN2CCOCC2)cc1,12.4%
17,COc1ccc(-c2cn3nc(SCC(=O)NC4CCCCC4)ccc3n2)cc1,22.6%
18,COCc1cc(CN(C)C(=O)C2CCC(=O)N(Cc3cccc(OC)c3)C2)[nH]n1 (stereo not shown),16.7%
19,CCOC(=O)c1c(C)[nH]c(C(=O)OCC(=O)Nc2cc(C)nn2-c2ccccc2)c1C,-2.69%
20,COc1ncccc1C(=O)N1CCCC(N2CCN(c3ccc(F)cc3)CC2)C1 (stereo not shown),-26.7%
21,COC(=O)C1CSC(C(=O)OC)N1C(=O)Nc1ccc(Cl)c(Cl)c1 (stereo not shown),-3.16%
22,N#CCSc1nc2c(cc1C#N)CCCCCC2,1.89%

row,SMILES,"hERG current change (%, negative = inhibition) at 10uM"
1,Cc1cc(=O)oc(C)c1C(=O)NC1CC(C)(C)NC(C)(C)C1,13.2%
2,COc1ccc(OCCCC(=O)OCC(=O)Nc2ccc(Cl)cn2)cc1,3.42%
3,Cn1c(/C(C#N)=C/c2cccc(O)c2)nc2ccccc21,0.375%
4,COc1c(Cl)cc(-c2noc(C)c2C(=O)NC(C)C)cc1Cl,4.84%
5,Cc1cc(C)c(C(=O)NC2CCCc3c2cnn3-c2cccc(C)c2C)o1 (stereo not shown),-7.96%
6,COC1CCCCC1Nc1cccc(SC)c1 (stereo not shown),1.68%
7,Cc1ccc(NC(=O)C(=O)NCC2CCCN2S(=O)(=O)c2cccs2)cc1 (stereo not shown),-25%
8,O=C1NC(=O)N(c2ccc3c(c2)OCO3)C(=O)/C1=C/c1ccc(N2CCCC2)o1,9.27%
9,CCCCOc1ccc(CNC(=O)NS(=O)(=O)c2ccc(OCC(C)C)cc2)cc1,-16.9%
10,COc1cc(C(=O)N/N=C(\Cc2ncc[nH]2)c2ccccc2)cc(OC)c1OC,6.99%
11,COC(=O)[C@@H](Cc1ccccc1)NC(=O)[C@H]1CCC(=O)N1C(=O)OCc1ccccc1,1.18%
12,COc1ccc(C(=O)CSc2nnc(-c3ccc(S(=O)(=O)N4CCOCC4)cc3)o2)cc1,7.62%
13,Cc1ccccc1CN1CCN(C(=O)c2ccco2)CC1.O=C(O)C(=O)O,7.41%
14,COc1ccc2c(c1OC)C(=O)N1c3ccccc3C(=O)N(c3ccccc3)C21 (stereo not shown),-6.13%
15,O=C(CCCc1ccccc1)NCc1ccc2c(c1)OCO2,-2.49%
16,CCN(CC)C(=O)COc1ccc(/C(C)=N/NC(=O)c2ccccc2Br)cc1,8.89%
17,CCOC(=O)C1CCN(c2c(NCCN3CCN(c4ccccc4)CC3)c(=O)c2=O)CC1,-10.7%
18,CS(=O)(=O)c1ccc2nc(NC(=O)CCS(=O)(=O)c3ccccc3)sc2c1,19.7%
19,CC1CCN(C(=O)c2nc[nH]c2C(=O)N2CCc3ccccc3C2)CC1,14.1%
20,CC(C)CCNC(=O)c1cc2c(=O)n3ccccc3nc2s1,-1.28%
21,CC(C)C(OC(=O)CN1C(=O)c2ccccc2C1=O)C(=O)NC1CCCCC1 (stereo not shown),17.5%
22,Cn1c(C(=O)NCc2ccc3c(c2)OCO3)cc2sccc21,-17.9%

row,SMILES,"hERG current change (%, negative = inhibition) at 10uM"
1,CCN(CC)S(=O)(=O)c1cc(NC(=O)CCNC(=O)c2ccccc2Cl)ccc1C,-11.5%
2,Cc1ccc(SCC(=O)OCC(=O)N(CC(C)C)C2CCS(=O)(=O)C2)cc1C (stereo not shown),-4.29%
3,CCCCC1=CC2=CC(=O)C(C)(OC(=O)CC)C(=O)C2=CN1CCN1CCOCC1 (stereo not shown),-11.7%
4,Cn1c(Cc2ccccc2)nnc1SCC(=O)c1cccs1,9.78%
5,CN(C)C(=O)c1coc2nc3ccccc3nc12,-1.35%
6,Cc1cccc(N(C)Cc2nnc(-c3cccc(Br)c3)o2)c1,20.6%
7,Cc1nc(NC(=O)/C=C/c2ccccc2)sc1C(=O)N1CCCCC1,3.2%
8,CC1(OC(=O)c2ccc(Cl)nc2)C(=O)C=C2C=C3CCCN3C=C2C1=O (stereo not shown),15.8%
9,Cc1cc(N2CCOCC2)nc2ccccc12,-3.24%
10,O=C(Nc1ccccc1C(F)(F)F)c1ccccn1,-4.16%
11,COc1ccc(OC)c(CN2CCC(CO)(CCOc3ccccc3)CC2)c1,-76.2%
12,O=C(NCCCNC(=O)c1cnccn1)c1ccc(Br)cc1,-11.8%
13,CCOC(=O)c1ccc(NC(=S)Nc2cccc(C)n2)cc1,19%
14,Br.CCn1c(=N)n(CC(=O)C(C)(C)C)c2ccccc21,-21.1%
15,O=C(Cn1cnc(Cl)c1Cl)c1ccc(F)cc1,6.34%
16,CSC1=N/C(=C\c2cccc(F)c2)C(=O)S1,15.3%
17,O=c1[nH]c(=O)n(Cc2ccccc2)c2nc(-c3ccc(Oc4ccc(F)cc4)c([N+](=O)[O-])c3)n(CCO)c12,-30.7%
18,COC(=O)c1c(NC(=O)CSc2nnc(CNc3ccc(Cl)cc3)o2)sc(C)c1C,2.46%
19,CSCC[C@H](NC(=O)[C@H]1N2C(=O)c3ccccc3C2SC1(C)C)C(=O)NCc1ccncc1 (stereo partly shown),-11.6%
20,COc1cccc(C2c3[nH]c4ccccc4c3C[C@H]3C(=O)N(CCCO)CC(=O)N23)c1OC (stereo partly shown),-6.83%
21,COc1ccc(NC(=O)C2CCCN(C(=O)Nc3ccc(OC)cc3)C2)cc1 (stereo not shown),-19%
22,Cc1ccc(C(=O)COC(=O)CN2C(=O)C3CC=CCC3C2=O)cc1[N+](=O)[O-] (stereo not shown),8.4%

row,SMILES,"hERG current change (%, negative = inhibition) at 10uM"
1,CCOc1ccccc1NC(=O)C12CC3CC(C1)CC(c1ccc(C)cc1)(C3)C2,-5.02%
2,Cc1ccc2[nH]c(C(=O)N/N=C/c3ccc([N+](=O)[O-])cc3)c(C)c2c1,18.5%
3,CN(CC(=O)Nc1ccc(Cl)cc1)C(=O)CNC(=O)Cc1cccc2ccccc12,20.1%
4,CC1(C)CC(=O)C(C2C3=C(CC(C)(C)CC3=O)Oc3c(Br)cc(Br)cc32)=C(O)C1 (stereo not shown),-31.8%
5,Cc1cccc(C(=O)N2CCN=C2SCc2ccc([N+](=O)[O-])cc2)c1,-51.9%
6,N/C(=N\OC(=O)c1ccc2c(c1)OCO2)c1ccncc1,-5.11%
7,COc1cccc(CN(C(=O)c2ccco2)C2CCS(=O)(=O)C2)c1 (stereo not shown),2.91%
8,COc1cccc(OCC(=O)NNC(=O)C(=O)Nc2ccc(OC)cc2OC)c1,16.1%
9,O=c1c(Cc2ccc(F)cc2)c(O)ccn1C1CCCCC1,-4.15%
10,CC(C)c1ccc(CNC(=O)CCc2ccccc2)cc1,-7.2%
11,CCCN(CC1CC1)C(=S)NC(=O)C1CC1,19.4%
12,COc1ccc(C2C(C(=O)NCCN(C)C)c3cc(OC)c(OC)cc3C(=O)N2C)cc1OC (stereo not shown),-1.57%
13,COc1ccc(-c2nc(NC(=O)CSc3nnc(C)s3)ns2)cc1,-2.08%
14,CC(C)CCNC(=O)c1c[nH]c2ccc(S(=O)(=O)N3CCC4(CC3)OCCO4)cc2c1=O,2.95%
15,COc1ccc(N2CCCn3c2nc2c3c(=O)n(CCc3ccccc3)c(=O)n2C)cc1,-7.83%
16,Cc1ccc(C2CC2c2n[nH]c(=S)n2-c2ccc(C)cc2)cc1 (stereo not shown),5.33%
17,Cn1ncc(Cl)c1C(=O)N1CCC2(CC1)OCCO2,-4.02%
18,CC(=O)NC[C@H]1CN(c2ccc(N3CCOCC3)c(F)c2)C(=O)O1,-2.63%
19,Cc1c(N2C(=O)c3cccc4cccc(c34)C2=O)cnn1C,6.55%
20,O=C(CSc1ccc(-c2cccs2)nn1)c1cccs1,-15.2%
21,O=C1CN=C(c2ccc[nH]2)c2cc(Cl)ccc2N1,-16%
22,Cc1cccc(-c2nc(CN3CCCC(C(=O)NC4CCCCCC4)C3)c(C)o2)c1 (stereo not shown),-69.8%
